# In the supplement of paper PMC4604168 (melanoma cell lines):
# Some of the results follow. Many values rest on one well or one pass, so single values are uncertain.
# Test system: COLO800
# Test: cell count relative to DMSO control; melanoma cells; higher = more viable cells
# Conditions: library dose: standard library concentration; 72 h
# 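Further: cells treated in 1,536-well plates, then fixed and DAPI-stained, with nuclei counted from automated high-throughput microscope images.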
row,SMILES,cell count [%]
1,"O=C(Nc1cc(C(F)(F)F)cc(C(F)(F)F)c1)c1cc(Cl)ccc1O + CS(=O)(=O)c1ccc(C(=O)Nc2ccc(Cl)c(-c3ccccn3)c2)c(Cl)c1 [vismodegib] (first compound 0.08 µM, partner dose 5 µM)",60.9
2,"O=C(Nc1cc(C(F)(F)F)cc(C(F)(F)F)c1)c1cc(Cl)ccc1O + CN(C)S(=O)(=O)c1ccc2c(c1)/C(=C/c1cc3c([nH]1)CCCC3)C(=O)N2 [SU6656] (first compound 0.08 µM, partner dose 2 µM)",44.4
3,"O=C(O)c1ccc2c(c1)nc(Nc1cccc(Cl)c1)c1ccncc12 + COc1cc2c(Oc3ccc4[nH]c(C)cc4c3F)ncnc2cc1OCCCN1CCCC1 [cediranib] (first compound 2 µM, partner dose 2 µM)",39.9
4,"O=C(Nc1cc(C(F)(F)F)cc(C(F)(F)F)c1)c1cc(Cl)ccc1O + Cn1nnc2c(C(N)=O)ncn2c1=O [temozolomide] (first compound 0.08 µM, partner dose 10 µM)",65.9
5,"O=C(O)c1ccc2c(c1)nc(Nc1cccc(Cl)c1)c1ccncc12 + C=C(c1ccc(C(=O)O)cc1)c1cc2c(cc1C)C(C)(C)CCC2(C)C [Bexarotene] (first compound 2 µM, partner dose 10 µM)",71.7
6,"O=C(Nc1cc(C(F)(F)F)cc(C(F)(F)F)c1)c1cc(Cl)ccc1O + CCCCCCCCCCCC1=C(O)C(=O)C=C(O)C1=O [Embelin] (first compound 0.08 µM, partner dose 6 µM)",82.3
7,"O=C(Nc1cc(C(F)(F)F)cc(C(F)(F)F)c1)c1cc(Cl)ccc1O + CCCCCCCCCCCCCCCCCCOP(=O)([O-])OC1CC[N+](C)(C)CC1 [Perifosine] (first compound 0.08 µM, partner dose 2 µM)",77.7
8,"O=C(Nc1cc(C(F)(F)F)cc(C(F)(F)F)c1)c1cc(Cl)ccc1O + C#Cc1cccc(Nc2ncnc3cc(OCCOC)c(OCCOC)cc23)c1 [erlotinib] (first compound 0.08 µM, partner dose 4 µM)",199
9,"Cn1nnc2c(C(N)=O)ncn2c1=O [temozolomide] + OCCn1cc(-c2cnc3nnn(Cc4ccc5ncccc5c4)c3n2)cn1 [PF04217903] (first compound 10 µM, partner dose 5 µM)",53
10,"O=C(O)[C@@H]1[O][Sb](=[O])([O][Sb]2(=[O])[O][C@H]([C@H](O)CO)[C@H](O)[C@H](C(=O)O)[O]2)[O][C@H]([C@H](O)CO)[C@@H]1O (stereo not given in full) [stibogluconate] + Cn1nnc2c(C(N)=O)ncn2c1=O [temozolomide] (first compound 10 µM, partner dose 10 µM)",66.4
11,"O=C(Nc1cc(C(F)(F)F)cc(C(F)(F)F)c1)c1cc(Cl)ccc1O + COc1ccc(Cl)c(Nc2nc3ccccc3nc2NS(=O)(=O)c2cccc(NC(=O)C(C)(C)N)c2)c1 [XL147] (first compound 0.08 µM, partner dose 4 µM)",90
12,"O=C(Nc1cc(C(F)(F)F)cc(C(F)(F)F)c1)c1cc(Cl)ccc1O + Cc1cc(Nc2cc(N3CCN(C)CC3)nc(/C=C/c3ccccc3)n2)n[nH]1 [ENMD2076] (first compound 0.08 µM, partner dose 0.2 µM)",66.1
13,"O=C(O)[C@@H]1[O][Sb](=[O])([O][Sb]2(=[O])[O][C@H]([C@H](O)CO)[C@H](O)[C@H](C(=O)O)[O]2)[O][C@H]([C@H](O)CO)[C@@H]1O (stereo not given in full) [stibogluconate] + COc1cc2c(Oc3ccc4[nH]c(C)cc4c3F)ncnc2cc1OCCCN1CCCC1 [cediranib] (first compound 10 µM, partner dose 2 µM)",31.6
14,"O=C(Nc1cc(C(F)(F)F)cc(C(F)(F)F)c1)c1cc(Cl)ccc1O + CO[C@@H]1[C@H](N(C)C(=O)c2ccccc2)C[C@H]2O[C@]1(C)n1c3ccccc3c3c4c(c5c6ccccc6n2c5c31)C(=O)NC4 [Midostaurin] (first compound 0.08 µM, partner dose 0.4 µM)",44.5
15,"O=C(O)[C@@H]1[O][Sb](=[O])([O][Sb]2(=[O])[O][C@H]([C@H](O)CO)[C@H](O)[C@H](C(=O)O)[O]2)[O][C@H]([C@H](O)CO)[C@@H]1O (stereo not given in full) [stibogluconate] + CN(NC(=O)CC(=O)NN(C)C(=S)c1ccccc1)C(=S)c1ccccc1 [STA4783] (first compound 10 µM, partner dose 0.03 µM)",17.7
16,"O=C(Nc1cc(C(F)(F)F)cc(C(F)(F)F)c1)c1cc(Cl)ccc1O + OCCn1cc(-c2cnc3nnn(Cc4ccc5ncccc5c4)c3n2)cn1 [PF04217903] (first compound 0.08 µM, partner dose 5 µM)",81.7
17,"Cc1cc(N2CCOCC2)cc2[nH]c(-c3c(NC[C@@H](O)c4cccc(Cl)c4)cc[nH]c3=O)nc12 + CN(C)S(=O)(=O)c1ccc2c(c1)/C(=C/c1cc3c([nH]1)CCCC3)C(=O)N2 [SU6656] (first compound 1 µM, partner dose 2 µM)",18.3
18,"O=C(O)[C@@H]1[O][Sb](=[O])([O][Sb]2(=[O])[O][C@H]([C@H](O)CO)[C@H](O)[C@H](C(=O)O)[O]2)[O][C@H]([C@H](O)CO)[C@@H]1O (stereo not given in full) [stibogluconate] + COc1cc(Nc2ncc(F)c(Nc3ccc4c(n3)NC(=O)C(C)(C)O4)n2)cc(OC)c1OC [Tamatinib] (first compound 10 µM, partner dose 2 µM)",28.1
19,"O=C(Nc1cc(C(F)(F)F)cc(C(F)(F)F)c1)c1cc(Cl)ccc1O + Cc1ccc(NC(=O)c2cccc(N(C)C)c2)cc1NC(=O)c1ccc(O)cc1 [ZM336372] (first compound 0.08 µM, partner dose 10 µM)",63
20,"O=C(O)c1ccc2c(c1)nc(Nc1cccc(Cl)c1)c1ccncc12 + Nc1nc(F)nc2c1ncn2[C@@H]1O[C@H](CO)[C@@H](O)[C@@H]1O [fludarabine] (first compound 2 µM, partner dose 1 µM)",51.4
21,"Cn1nnc2c(C(N)=O)ncn2c1=O [temozolomide] + Cc1cc(N2CCOCC2)cc2[nH]c(-c3c(NC[C@@H](O)c4cccc(Cl)c4)cc[nH]c3=O)nc12 [BMS536924] (first compound 10 µM, partner dose 1 µM)",60.1
22,"O=C(O)[C@@H]1[O][Sb](=[O])([O][Sb]2(=[O])[O][C@H]([C@H](O)CO)[C@H](O)[C@H](C(=O)O)[O]2)[O][C@H]([C@H](O)CO)[C@@H]1O (stereo not given in full) [stibogluconate] + NC(=O)Nc1cc(-c2cccc(F)c2)sc1C(=O)N[C@H]1CCCNC1 [AZD7762] (first compound 10 µM, partner dose 0.1 µM)",46.8
23,"O=C(O)[C@@H]1[O][Sb](=[O])([O][Sb]2(=[O])[O][C@H]([C@H](O)CO)[C@H](O)[C@H](C(=O)O)[O]2)[O][C@H]([C@H](O)CO)[C@@H]1O (stereo not given in full) [stibogluconate] + COc1ccc(Cl)c(Nc2nc3ccccc3nc2NS(=O)(=O)c2cccc(NC(=O)C(C)(C)N)c2)c1 [XL147] (first compound 10 µM, partner dose 4 µM)",123
24,"Cn1nnc2c(C(N)=O)ncn2c1=O [temozolomide] + O=C(O)c1ccc(-c2c[nH]c3ncc(-c4ccccc4)cc23)cc1C1CCCC1 [GSK650394] (first compound 10 µM, partner dose 0.8 µM)",66.4
25,"Cn1nnc2c(C(N)=O)ncn2c1=O [temozolomide] + CCN(CC)CCCCNc1ncc2cc(-c3cc(OC)cc(OC)c3)c(NC(=O)NC(C)(C)C)nc2n1 [PD173074] (first compound 10 µM, partner dose 0.5 µM)",98.2
26,"O=C(O)[C@@H]1[O][Sb](=[O])([O][Sb]2(=[O])[O][C@H]([C@H](O)CO)[C@H](O)[C@H](C(=O)O)[O]2)[O][C@H]([C@H](O)CO)[C@@H]1O (stereo not given in full) [stibogluconate] + OCc1c[nH]c2ccccc12 [Indole-3-carbinol] (first compound 10 µM, partner dose 4 µM)",106
27,"Cn1nnc2c(C(N)=O)ncn2c1=O [temozolomide] + O=C(Nc1cccc(Cl)c1)Nc1ncc(CCNc2ncnc3ccsc23)s1 [SNS314] (first compound 10 µM, partner dose 0.004 µM)",49
28,"O=C(Nc1cc(C(F)(F)F)cc(C(F)(F)F)c1)c1cc(Cl)ccc1O + Cc1cc(N2CCOCC2)cc2[nH]c(-c3c(NC[C@@H](O)c4cccc(Cl)c4)cc[nH]c3=O)nc12 [BMS536924] (first compound 0.08 µM, partner dose 1 µM)",29.4
29,"O=C(O)c1ccc2c(c1)nc(Nc1cccc(Cl)c1)c1ccncc12 + Cn1cncc1[C@@](N)(c1ccc(Cl)cc1)c1ccc2c(c1)c(-c1cccc(Cl)c1)cc(=O)n2C [tipifarnib] (first compound 2 µM, partner dose 0.05 µM)",51.5
30,"Cc1cc(N2CCOCC2)cc2[nH]c(-c3c(NC[C@@H](O)c4cccc(Cl)c4)cc[nH]c3=O)nc12 + COc1cc2c(Oc3ccc4[nH]c(C)cc4c3F)ncnc2cc1OCCCN1CCCC1 [cediranib] (first compound 1 µM, partner dose 2 µM)",31.6
